# PubChem BioAssay AID1347165 (National Center for Advancing Translational Sciences (NCATS), 2019)
# Hit rate of the full screen: of about 220,000 compounds, about 5,700 (2.6%) were called active. Inconclusive means that the source gave no clear call. Such entries were picked first, then a sample of the others. The call rests on the fitted dose curve; in most records, active means well fitted inhibition curve with a large enough effect; inconclusive means small, poorly fitted or top-dose-only effect; inactive means no such curve, though single readings can be large or run the other way. Potencies beside an inconclusive call are fits to weak or partial responses and may not hold up.
# Target: Lysine-specific demethylase 5B (Homo sapiens) (UniProt Q9UGL1)
# Sequence of UniProt Q9UGL1 (Q9UGL1 whole entry, looked up): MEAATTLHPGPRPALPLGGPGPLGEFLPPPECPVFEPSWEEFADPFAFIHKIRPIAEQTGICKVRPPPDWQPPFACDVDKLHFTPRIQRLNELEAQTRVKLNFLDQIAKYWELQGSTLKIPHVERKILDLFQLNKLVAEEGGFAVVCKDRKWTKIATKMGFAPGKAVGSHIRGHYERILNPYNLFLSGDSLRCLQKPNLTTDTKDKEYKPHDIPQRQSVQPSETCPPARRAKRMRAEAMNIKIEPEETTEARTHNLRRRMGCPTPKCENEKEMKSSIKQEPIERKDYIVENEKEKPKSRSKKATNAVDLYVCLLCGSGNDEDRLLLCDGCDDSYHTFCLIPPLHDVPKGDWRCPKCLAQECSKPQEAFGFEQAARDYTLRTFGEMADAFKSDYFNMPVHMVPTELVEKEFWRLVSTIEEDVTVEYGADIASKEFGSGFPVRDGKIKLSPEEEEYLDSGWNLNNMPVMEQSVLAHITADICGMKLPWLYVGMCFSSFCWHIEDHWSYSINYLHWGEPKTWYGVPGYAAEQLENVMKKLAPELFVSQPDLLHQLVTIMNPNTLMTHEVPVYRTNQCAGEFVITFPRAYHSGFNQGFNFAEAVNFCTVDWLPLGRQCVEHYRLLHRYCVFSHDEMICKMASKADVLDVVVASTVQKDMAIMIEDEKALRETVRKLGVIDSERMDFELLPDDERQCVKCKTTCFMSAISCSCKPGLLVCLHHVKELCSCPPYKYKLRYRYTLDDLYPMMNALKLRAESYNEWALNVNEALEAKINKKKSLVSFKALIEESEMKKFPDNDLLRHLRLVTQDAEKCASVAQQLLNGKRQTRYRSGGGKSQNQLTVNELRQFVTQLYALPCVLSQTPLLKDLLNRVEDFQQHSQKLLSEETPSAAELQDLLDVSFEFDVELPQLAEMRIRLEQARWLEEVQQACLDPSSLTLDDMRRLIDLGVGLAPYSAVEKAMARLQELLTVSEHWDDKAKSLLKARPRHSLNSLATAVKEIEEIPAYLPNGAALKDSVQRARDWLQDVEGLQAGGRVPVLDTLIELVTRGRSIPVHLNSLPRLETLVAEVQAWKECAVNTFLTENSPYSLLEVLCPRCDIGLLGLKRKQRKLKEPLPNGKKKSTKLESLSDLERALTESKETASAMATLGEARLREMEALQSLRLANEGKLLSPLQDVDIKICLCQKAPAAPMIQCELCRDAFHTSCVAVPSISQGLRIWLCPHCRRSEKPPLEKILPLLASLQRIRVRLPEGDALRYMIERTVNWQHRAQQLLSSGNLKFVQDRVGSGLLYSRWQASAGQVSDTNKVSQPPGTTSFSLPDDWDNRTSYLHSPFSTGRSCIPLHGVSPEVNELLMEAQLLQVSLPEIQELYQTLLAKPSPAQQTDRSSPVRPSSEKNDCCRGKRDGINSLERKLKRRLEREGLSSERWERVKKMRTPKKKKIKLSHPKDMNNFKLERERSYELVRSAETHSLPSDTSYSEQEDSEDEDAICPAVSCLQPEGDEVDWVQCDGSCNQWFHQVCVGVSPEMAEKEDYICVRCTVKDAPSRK
# Experiment: Primary screen for KDM5B Histone Demethylases FDH-coupled qHTS; further: nearly all actives have a fitted effect of over 70% in size; on activity change, negative = inhibition: 0% is about no effect
# Settings: FDH-coupled NADH fluorescence (FDH is formaldehyde dehydrogenase); activity change, negative = inhibition: at 57.7 µM (top of the series) unless noted
# Procedure, shortened: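 qHTS format, multiple compound concentrations. Buffer 50 mM HEPES pH 7.5/0.01% Tween-20; 200 nM KDM5BΔAP final; 10 min compound preincubation; substrate-mix levels 12.5 µM peptide, 25 µM α-KG, 0.25 mM NAD⁺; 30 min RT; ΔRFU.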
# Potency means the concentration at half of the fitted maximal effect; tags describe the fitted curve by direction and shape.
Structure (SMILES),"activity change, negative = inhibition",Potency
CCCc1ccc(OCc2ccc(C(=O)O)cc2)cc1,inactive: -2.37%,–
COCCCNC(=S)N/N=C/c1ccccc1O,–,"inconclusive: 22.4 µM [inhibitor, partial curve, poor fit]"
COCCNC(=O)CCc1cc2ccc(C)cc2[nH]c1=O,–,"inconclusive: 20 µM [inhibitor, partial curve]"
COc1ccc(CCNC(=O)c2cnc3ccc(C)cn3c2=O)cc1,inactive: -14.1%,–
COC(=O)c1sc(N2C(=O)C(=O)/C(=C(/O)c3cccc(OC)c3)C2c2ccccc2F)nc1C (stereo not given),inactive: -6.51%,–
CCNC(=S)NCCSc1ccc(Cl)cc1,inactive: 12.2%,–
N#Cc1ccc(C(=O)Nc2ccc([C@@H](O)[C@H]3COCC(=O)N3Cc3ccccc3F)cc2)cc1,inactive: -7.43%,–
O=C(Nc1ccnn1Cc1ccccc1Cl)c1n[nH]c(=O)c2ccccc12,inactive: 17%,–
COc1ccc(C2C(C(N)=O)=C(C)Nc3nc(CCCO)nn32)c(OC)c1 (stereo not given),–,"inconclusive: 2.51 µM [inhibitor, full curve, poor fit]"
O=C(CC1CCOC2(CCN(C(=O)c3cccc(F)c3)CC2)C1)NCc1ccncc1 (stereo not given),inactive: -26.2%,–
COCc1nc(C2CC(N)C2)cc(N2CCC3(CC2)CNC(=O)O3)n1 (stereo not given),inactive: 4.91%,–
COc1cccc(NC(=O)C2CC(=O)N(c3n[nH]c4cccc(F)c34)C2)c1 (stereo not given),–,"inconclusive: 31.6 µM [inhibitor, single point]"
CCC(=O)Oc1ccc(C(=O)Nc2cccc(NC(=O)c3ccco3)c2)cc1,–,"inconclusive: 31.6 µM [inhibitor, single point]"
CNC(=O)CCn1ncc2cc(OCc3ccccc3-c3ccc(OC)cc3Cl)ccc21,–,"inconclusive: 39.8 µM [inhibitor, partial curve, poor fit]"
Cc1ccc(NC(=O)Cc2c[nH]c3ccccc23)cc1F,inactive: -6.06%,–
Cc1cc(NCc2nc(-c3ccsc3)no2)ccc1-n1cnnn1,inactive: -13.5%,–
O=C(c1ccc(Cl)cc1)N1CCNc2cnc(Nc3cccc(C(F)(F)F)c3)nc2C1,–,"inconclusive: 28.2 µM [inhibitor, partial curve, poor fit]"
O=C(NCc1cccs1)c1nc(-c2cccc(C(F)(F)F)c2)c2cnccn12,–,active: 15.8 µM
Cn1c(=O)n(-c2ccc(Br)cc2F)c(=O)c2sc3ccccc3c21,–,"inconclusive: 3.55 µM [inhibitor, full curve, poor fit]"
O=C(Nc1ccc([C@@H](O)[C@H]2COCC(=O)N2Cc2ccccn2)cc1)c1cnccn1,inactive: -29.4% [at 86.2 µM],–
CCCN1C(C(=O)c2ccccc2)=C(OC(=O)COc2ccccc2)c2ccccc2S1(=O)=O,–,"inconclusive: 11.2 µM [inhibitor, partial curve, poor fit]"
OC[C@@H]1O[C@H](CNCc2ccc(F)cc2)[C@H](N2CCN(c3ccccc3)CC2)[C@@H]1O,–,"inconclusive: 22.4 µM [inhibitor, partial curve, poor fit]"
O=C1NCc2ccccc2CC12CCN(Cc1cc(O)ccc1[N+](=O)[O-])C2 (stereo not given),–,"inconclusive: 39.8 µM [inhibitor, partial curve, poor fit]"
Cc1ccc(S(=O)(=O)CCC(=O)OCc2cc(=O)oc3cc(C)c(C)cc23)cc1,inactive: -12.8%,–

Structure (SMILES),"activity change, negative = inhibition",Potency
Clc1ccc2c(c1)-c1[nH]ncc1CS2,–,"inconclusive: 20 µM [inhibitor, single point]"
COc1ccccc1CNC(=O)c1cc(Br)ccc1O,–,"inconclusive: 39.8 µM [inhibitor, single point]"
CC(C)COc1cccc(C(=O)Nc2ccc(-c3nc4ncccc4o3)cc2)c1,–,"inconclusive: 31.6 µM [inhibitor, single point]"
CCCOc1ccc(NC(=O)C(CC)Oc2ccccc2F)c2cccnc12 (stereo not given),–,"inconclusive: 39.8 µM [inhibitor, single point]"
CC1(C)[C@H](Cc2cc(-c3ccccc3)on2)C[C@@H]1NS(=O)(=O)c1ccccc1,–,"inconclusive: 35.5 µM [inhibitor, partial curve]"
CCN(CC)CCNC(=O)c1cc2c(s1)-c1ccccc1SC2,–,"inconclusive: 25.1 µM [inhibitor, partial curve, poor fit]"
CCCNc1c(NC(=O)c2ccc(OCC)c(OCC)c2)c(=O)oc2ccccc12,inactive: 12.1%,–
CCCCCC(=O)Nc1nc2c(s1)C[C@@H]1[C@](C)(CO)[C@H](O)CC[C@@]1(C)[C@@H]2CC(=O)Nc1cccc(O)c1,–,"inconclusive: 22.4 µM [inhibitor, partial curve]"
CCCCn1nc(C(=O)Nc2nc(C)cs2)c2ccccc2c1=O,inactive: -12.9%,–
CCc1ccc(-c2nc(SCc3cc(=O)n4nc(C)sc4n3)n[nH]2)cc1,inactive: 17.6%,–
O=C(c1cnn2c(C(F)F)cc(-c3ccccc3)nc12)N1CCN(Cc2ccc3c(c2)OCO3)CC1,–,"inconclusive: 39.8 µM [inhibitor, single point]"
COc1ccc(OC)c(NC(=O)CN(C)S(=O)(=O)c2ccc(C(=O)N3CCOCC3)s2)c1,inactive: -22.2%,–
CC(C)C/C=C(/C#N)c1nc2ccccc2[nH]1,–,"inconclusive: 28.2 µM [inhibitor, single point]"
O=C(NCC1OCCc2ccccc21)c1ccc(Cl)cc1Cl (stereo not given),inactive: 3.85%,–
O=C1NC2(CCN(C(=O)OCc3ccccc3)C2)N=C1c1ccccn1 (stereo not given),–,active: 25.1 µM
Cc1ccc(-c2nc(C(=O)N3CCN(c4ccccc4)CC3)no2)cc1,inactive: -6.95%,–
Cn1nc(C2CCCN2)c2c(C(=O)NCc3ccc(F)cc3)cc(C3CC3)nc21 (stereo not given),–,active: 79.4 µM
CC(NC(=O)c1ccc2c(c1)OCO2)C(=O)N1CCN(c2ccccn2)CC1 (stereo not given),–,active: 31.6 µM
COc1cccc(NC(=O)Nc2cccc(-c3ccc(N4CCOCC4)nn3)c2)c1,inactive: -26.1%,–
O=C(Nc1cccc(-c2nc3cc(Cl)ccc3o2)c1)c1cc([N+](=O)[O-])ccc1N1CCOCC1,–,inactive
CCn1cnnc1-c1cccc(NS(=O)(=O)c2cccc(F)c2)c1,inactive: 0.47%,–
COc1ccc(CN2CC[C@H]3CN(C)CC[C@H]3CC2=O)cc1,inactive: 23.2% [at 86.2 µM],–
O=C1C(=O)N(CCN2CCOCC2)C(c2ccccc2)/C1=C(\O)c1ccc2c(c1)OCCO2 (stereo not given),–,"inconclusive: 22.4 µM [inhibitor, partial curve, poor fit]"
COc1ccc(OC)c2[nH]c(C(=O)N/N=C/c3ccccc3O)cc12,–,"inconclusive: 28.2 µM [inhibitor, partial curve, poor fit]"

Structure (SMILES),"activity change, negative = inhibition",Potency
CN(CCC(O)c1ccccc1)c1nccc(-c2cccnc2)n1 (stereo not given),–,active: 28.2 µM
COc1ccc(S(=O)(=O)c2nnn(-c3cc(Cl)c(OC)cc3OC)c2C)cc1,–,"inconclusive: 2.51 µM [inhibitor, full curve, poor fit]"
CN(CCOc1ccccc1)Cc1cc(=O)oc2cc(O)ccc12,–,"inconclusive: 28.2 µM [inhibitor, partial curve, poor fit]"
Cc1c(CCC(=O)Nc2ccc(F)cc2)c(=O)oc2cc(O)ccc12,–,"inconclusive: 17.8 µM [inhibitor, partial curve, poor fit]"
O=C(NC1CCCc2nc(N3CCC(CO)CC3)ncc21)c1ccccn1 (stereo not given),–,"inconclusive: 12.6 µM [inhibitor, single point]"
O=C(NCc1nnc2c(-c3nc(C4CC4)no3)cccn12)c1ccc(F)cc1Cl,–,active: 20 µM
Cc1cc(C)c2c(C)c(C(=O)NCC(c3ccco3)N3CCCC3)oc2c1 (stereo not given),–,"inconclusive: 17.8 µM [inhibitor, partial curve, poor fit]"
CN(Cc1ccccc1)C(=O)C[C@@H]1c2nc(NC(=O)CC(C)(C)C)sc2C[C@@H]2[C@](C)(CO)[C@H](O)CC[C@]21C,inactive: -8.01%,–
CCOc1cccc(C(=O)Nc2ccc(S(=O)(=O)N(Cc3ccccc3)c3ccccc3)cc2)c1,–,"inconclusive: 22.4 µM [inhibitor, partial curve, poor fit]"
COCCCNC(=O)CCN(CCC(C)C)C(=O)c1cc(C)oc1C,–,"inconclusive: 35.5 µM [inhibitor, partial curve, poor fit]"
COc1cccc(-c2nc(SCc3cc(=O)c4ccc(C)c(C)c4[nH]3)n[nH]2)c1,–,"inconclusive: 31.6 µM [inhibitor, partial curve, poor fit]"
CCNC(=S)NCCc1ccc(Cl)cc1,inactive: 10.9%,–
COc1ccc(C(=O)N2CCC3(CC2)NC(=O)N(c2ccccc2)N3)cc1OC,–,"inconclusive: 15.8 µM [inhibitor, partial curve]"
Cc1ccc(C)c(-c2nc(Cn3c(=O)cc(-c4ccccc4)c4c(C)nn(C)c43)c(C)o2)c1,–,"inconclusive: 0.891 µM [inhibitor, partial curve, poor fit]"
CCCc1nc(NCC(c2ccccn2)N2CCOCC2)c2cnn(C)c2n1 (stereo not given),–,"inconclusive: 10 µM [inhibitor, partial curve, poor fit]"
CN1CCN(CCCNC(=O)c2cnn(-c3ccccc3)c2-n2cccc2)CC1,–,"inconclusive: 1.78 µM [inhibitor, partial curve, poor fit]"
CC(C)C(=O)NCCc1noc(-c2ccccc2)n1,inactive: 9.56%,–
CN(C)c1ccc(-c2ccnc(N[C@H]3CO[C@H]4[C@@H]3OC[C@H]4OC(=O)Nc3cccc(C#N)c3)n2)cc1,inactive: -1950%,–
O=c1c2sc3ccccc3c2n(Cc2cccc(C(F)(F)F)c2)c(=O)n1Cc1ccco1,–,"inconclusive: 5.62 µM [inhibitor, partial curve, poor fit]"
NC(=O)CN1c2ccc(F)cc2-c2ccccc2S1(=O)=O,inactive: 16.9%,–
CCCNC(=O)COc1ccccc1NC(C)=O,inactive: 12.3%,–
O=C(N[C@H]1C[C@H]2C(=O)Nc3ccc(-c4cccs4)cc3C(=O)N2C1)c1ccccc1,–,active: 31.6 µM
